This is an account of results in article PMC6919601, “Identification of Plasmodium dipeptidyl aminopeptidase allosteric inhibitors by high throughput screening” (PLoS ONE, 2019).

The campaign covered roughly 110,000 compounds. About 230 (0.21%) showed an effect of 50% or more. The list shows a part of the results.
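Further: 30 min substrate incubation versus DMSO and 10 µM JCP410 controls.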

The experiment deals with DPAP1 (Plasmodium falciparum, UniProt Q8IIJ9). Description: primary screen, percent inhibition; read by cleavage of a fluorogenic dipeptide substrate; higher = more effect of the substance. Also noted: species or system P. falciparum D10 trophozoite lysates; single well.
Chain of DPAP1 (Q8IIJ9 whole entry, looked up): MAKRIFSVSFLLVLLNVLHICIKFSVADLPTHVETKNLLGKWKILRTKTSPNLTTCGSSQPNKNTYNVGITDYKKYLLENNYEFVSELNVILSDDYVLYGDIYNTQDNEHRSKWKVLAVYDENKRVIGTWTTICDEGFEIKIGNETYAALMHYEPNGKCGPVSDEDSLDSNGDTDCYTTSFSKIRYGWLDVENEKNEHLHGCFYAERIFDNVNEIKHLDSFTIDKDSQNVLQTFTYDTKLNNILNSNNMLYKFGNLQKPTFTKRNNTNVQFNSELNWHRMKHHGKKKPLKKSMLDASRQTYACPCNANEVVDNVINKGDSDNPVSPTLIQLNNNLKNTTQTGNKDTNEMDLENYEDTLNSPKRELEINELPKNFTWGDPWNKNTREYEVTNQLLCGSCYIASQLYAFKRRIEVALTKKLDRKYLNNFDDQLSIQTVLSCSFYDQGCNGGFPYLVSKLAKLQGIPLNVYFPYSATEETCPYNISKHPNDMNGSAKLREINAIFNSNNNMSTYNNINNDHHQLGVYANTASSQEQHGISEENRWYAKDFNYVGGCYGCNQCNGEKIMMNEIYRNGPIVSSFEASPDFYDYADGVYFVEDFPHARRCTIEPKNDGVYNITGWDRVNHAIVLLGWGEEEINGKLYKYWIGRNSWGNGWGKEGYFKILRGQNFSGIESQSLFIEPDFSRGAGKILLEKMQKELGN
`O=C(O)C1CCCCC1C(=O)NC1CCCCCC1` (stereo not shown): the “% Inhibition @ 10 uM” value worked out at 1.15%.

For `CCOc1ccccc1C(=O)NCCc1c(C)[nH]c2ccccc12`, the “% Inhibition @ 10 uM” value is 1.1%. With `COc1ccc(OC)c(-c2cc(C(=O)N3CCCCC3)no2)c1` the figure was -1.84%; with `CC1CCc2c(sc3nc(-c4ccccc4)oc(=O)c23)C1` (stereo not shown), 2%.

With `O=C(NCc1ccccn1)C(c1ccccc1)N1Cc2ccccc2C1=O` (stereo not shown), the “% Inhibition @ 10 uM” value is given as -8.42%.

As for `O=[N+]([O-])c1cccc(-c2cnc3ccccc3n2)c1`, the “% Inhibition @ 10 uM” value is -1.45%.

With `N#Cc1c(N)ccn(-c2ccc(Cl)cc2)c1=O`, the “% Inhibition @ 10 uM” value was 1.04%.

With `O=C(C1=C(O)C(=O)N(CCc2ccc(O)cc2)C1c1ccccc1F)c1ccccc1` (stereo not shown), the “% Inhibition @ 10 uM” value came out at 0.231%. The same measure for `C=Cc1ccc(Cn2c(C(=O)O)c(CNC3CCCCCC3)c3ccc(OC)cc32)cc1`: 7.63%. The same measure for `O=C(c1cc2ccccc2cc1OCC(O)CN1CCCCC1)N1CCCCC1` (stereo not shown): -3.4%; for `CSc1nc(C)cc(C)c1CN`: -3.04%.

For the compound `CCCN1CCN(C(=O)Cn2ncc3c4ccccc4n(Cc4ccccc4)c3c2=O)CC1`, the “% Inhibition @ 10 uM” value is on record as 0.137%. On to `COc1ccc(CCNC(=O)Cn2cnc3c(nc4n3CCCCC4)c2=O)cc1OC`, for which the “% Inhibition @ 10 uM” value is given as 2.13%.

Turning to `CCOC(=O)c1c(NC(=O)c2ccc3ccccc3c2)sc(C(=O)OC)c1C`, the “% Inhibition @ 10 uM” value is on record as -2.98%. The same measure for `CCCC1=C(C(=O)OCC)C(c2ccc(F)cc2F)C(C#N)=C(N)O1` (stereo not shown): -1.98%; for `N#CCNC(=O)[C@H](CC1CCCCC1)NC(=O)C1=CCCC1`: -5.21%; for `Cc1oc(-c2ccccc2Cl)nc1CSCC(=O)NCc1ccco1`: -3.08%. The same measure for `CN(Cc1ccccc1)C(=O)c1cc2c(s1)-c1ccccc1S(=O)(=O)C2`: -2.17%; for `O=C(CC1CCCCC1)Nc1c2c(nn1-c1cccc(Cl)c1)CSC2`: 3.5%; for `CSCCCN1CCCC(C(N)=O)C1` (stereo not shown): -1.21%.

`Cc1cccc(Oc2nc3ccccn3c(=O)c2/C=C(\C#N)C(=O)NCC2CCCO2)c1C` (stereo not shown): the “% Inhibition @ 10 uM” value was -5.34%. Turning to `CC(Sc1c[nH]c2ccccc12)C(=O)O` (stereo not shown), the “% Inhibition @ 10 uM” value turned out to be 1.88%. As for `CC1CCc2c(sc(N)c2C(=O)Nc2ccc(Cl)cc2)C1` (stereo not shown), the “% Inhibition @ 10 uM” value is recorded as -4.89%. The same measure for `CC(=O)CSc1nc2ccccc2s1`: 3.01%. The same measure for `CCOC(=O)c1c(NC(C)=O)sc2c1CCC/C2=N\OC(=O)c1cc(OC)c(OC)c(OC)c1`: -1.4%; for `COCCn1c(SCC(=O)N2CCCC2)nnc1-c1c[nH]c2ccccc12`: -3.1%.

As to `COc1ccc(NCc2cc(Cl)ccc2OC)cc1`, the “% Inhibition @ 10 uM” value came to 5.39%. The same measure for `Cc1c(CN2CCCC3CCCCC32)c(=O)n(-c2ccccc2)n1C` (stereo not shown): 5.2%; for `O=S1(=O)CCC(S(=O)(=O)NCc2ccccc2)C1` (stereo not shown): -2.77%; for `CCN1CCN(c2c(C(=O)c3ccccc3)cnc3ccc(OC)cc23)CC1`: -2.18%. Regarding `COc1ccc(C(=O)Nc2ccc3[nH]c4c(c3c2)CCCC4)cc1OC`, the “% Inhibition @ 10 uM” value is given as 1.37%.

With `CCO/C(O)=C1/C(C)=Nc2nc3ccccc3n2C1c1cccc(F)c1` (stereo not shown), the “% Inhibition @ 10 uM” value is given as -1.62%.

As for `CCOC(=O)NC(=O)NCCN1CCOCC1`, the “% Inhibition @ 10 uM” value is given as -0.403%.

Consider `COc1ccc(CCNC(=O)CN2C(=O)CSc3ncccc32)cc1OC`, for which the “% Inhibition @ 10 uM” value is listed as -2.37%. The same measure for `Cc1onc(-c2c(Cl)cccc2Cl)c1C(=O)Nc1sc(C)c(C)c1C(N)=O`: 2.03%. With `Cc1c(Cl)cccc1N(CC(=O)NCc1ccco1)S(=O)(=O)c1ccccc1`, the “% Inhibition @ 10 uM” value was -13.5%. With `CC(C)C[C@H](NC(=O)c1cccc2[nH]ccc12)C(=O)NCC#N` the figure was -3.97%; with `CCC(=O)NC(=O)/C(C#N)=C/Nc1ccccc1OC`, -4.75%; with `Cc1ccc(-c2nc3cc(N)ccc3o2)cc1`, -7.01%.

Take `CC(C)/N=C(/NS(=O)(=O)c1ccc(Cl)cc1)C(C)C`: the “% Inhibition @ 10 uM” value is on record as 10.1%. Regarding `CN(Cc1ccccc1)S(=O)(=O)c1ccc2[nH]c3c(c2c1)CCCC3`, the “% Inhibition @ 10 uM” value is reported as 7.46%.

As to `NC(=O)c1cc(S(=O)(=O)N2CCN(C(=O)c3ccco3)CC2)cs1`, the “% Inhibition @ 10 uM” value was determined as 2.24%. With `COc1ccc(OCC(=O)Nc2c(C(=O)N3CCC(N4CCCCC4)CC3)oc3ccccc23)cc1` the figure was -2.16%; with `CC1=CC2=NC(=O)/C(=C\c3ccc4c(c3)OCO4)C(=N)N2O1`, -3.23%. With `Cc1c(Cl)cccc1-c1ccc(C=O)o1` the figure was -0.597%.

With `O=C(Nc1ccccc1F)c1ccc(F)cc1`, the “% Inhibition @ 10 uM” value is -3.03%. With `Oc1nnc(/C=C/c2ccc(F)cc2)o1` the figure was 0.032%; with `O=C(Nc1ccccc1C(F)(F)F)c1ccc2c(c1)C(=O)N(Cc1cccnc1)C2=O`, -3.04%; with `CCCCCCOc1ccc(CNCCCN(CC)CC)cc1`, -3.12%. With `Cc1ccc(C(=O)c2oc3ccccc3c2NC(=O)c2ccco2)cc1` the figure was -1.11%. With `COCCCNC(=O)CCn1nc(-c2ccccc2)ccc1=O` the figure was -3.58%; with `COC(=O)C1=C(C)NC(=O)NC1c1cccc(Oc2ccccc2)c1` (stereo not shown), 1.12%; with `CC(=O)c1c(C)nn2c3ccccc3n(CCN3CCOCC3)c12`, -3.92%. `COc1ccc(NC(=O)CN(Cc2ccc(Cl)cc2)S(=O)(=O)c2ccccc2)cc1`: the “% Inhibition @ 10 uM” value is recorded as -1.84%. With `O=C(NCC1COc2ccccc2O1)c1ccco1` (stereo not shown) the figure was -5.76%. With `CCOC(=O)c1c(C)[nH]c(C)c1S(=O)(=O)N1CCC(C(=O)Nc2nc(C)cs2)CC1` the figure was -2.31%; with `CC(CNc1nc2ccccc2n2cnnc12)c1ccccc1` (stereo not shown), 0.981%. The same measure for `CC(CCc1ccccc1)NC(=O)Cn1ncc2c(=O)oc3ccccc3c21` (stereo not shown): -2.83%. As to `CCOc1ccccc1N(CC(=O)N1CCOCC1)S(=O)(=O)c1ccc(C)cc1`, the “% Inhibition @ 10 uM” value amounted to 1.71%. The same measure for `Cc1ccc(C2C(C#N)=C(N)OC3=C2C(=O)CCC3)s1` (stereo not shown): 1.42%. The same measure for `CCOC(=O)c1sc2nc(SC)n(Cc3ccccc3)c(=O)c2c1C`: -1.68%; for `Cc1ccc(C2=NN3C(C2)c2ccccc2OC3c2ccccc2Cl)o1` (stereo not shown): -5.51%. With `O=C(c1ccccc1O)N1CCOCC1`, the “% Inhibition @ 10 uM” value is recorded as -2.87%. As for `Cc1cc(C)nc(NS(=O)(=O)c2ccc(NC(=O)c3ccc4c(c3)OCO4)cc2)n1`, the “% Inhibition @ 10 uM” value is -3.45%. The same measure for `CN1CCN(C(=O)/C(=C\c2cccnc2)NC(=O)c2ccco2)CC1`: -4.93%; for `O=C1CC(C(=O)NCc2ccccc2)NC(N2CCOCC2)=N1` (stereo not shown): 4.08%; for `CCS(=O)(=O)N1CCC(C(=O)NCCc2ccccc2)CC1`: 3.79%. Turning to `Cn1cccc1Cc1nnc(SCC(=O)N2CCCC2)n1CCc1ccccc1`, the “% Inhibition @ 10 uM” value was 5.77%.

As for `COc1ccc2nc(NC(=O)c3cc(=O)c4cc(C)ccc4o3)sc2c1`, the “% Inhibition @ 10 uM” value is listed as -3.24%. `CCOc1ccc(C(=O)N(Cc2ccccc2)C2CCS(=O)(=O)C2)cc1` (stereo not shown): the “% Inhibition @ 10 uM” value was 0.561%. `CCOc1ccccc1/C=C1/N=C(c2ccc(OC)c(Br)c2)OC1=O`: the “% Inhibition @ 10 uM” value was found to be 5.63%.

`COP(=O)(c1ccccc1)C(O)(c1ccccc1)c1ccccc1` (stereo not shown): the “% Inhibition @ 10 uM” value is 6.89%.

Regarding `O=C(Nc1ccccc1NC(=O)c1ccco1)c1ccco1`, the “% Inhibition @ 10 uM” value amounted to 1.63%.

With `Cc1cc(C)n(-c2nnc3c(n2)[nH]c2ccccc23)n1`, the “% Inhibition @ 10 uM” value was 16.9%. For `Cc1ccc(SCc2n[nH]c3c2C(C(C)C)C(C#N)=C(N)O3)cc1` (stereo not shown), the “% Inhibition @ 10 uM” value is given as 2.68%.

Take `Cc1ccc(C)c(NC(=O)CN(c2ccccc2F)S(C)(=O)=O)c1`: the “% Inhibition @ 10 uM” value is listed as -3.28%. The same measure for `CC(C)(O)C(=O)/C=C/c1ccc(Cl)cc1`: 4.33%; for `CN1C(=O)c2ccccc2C(C(=O)NC2CCCc3ccccc32)C1c1cn(C)c2ccccc12` (stereo not shown): 4.63%.

Consider `Fc1ccc(COc2ccc(Br)cc2CNCC2CCCO2)cc1` (stereo not shown), for which the “% Inhibition @ 10 uM” value is given as 8.1%. In the case of `CCOC(=O)N1CCN(S(=O)(=O)c2cc(Cl)c(C)cc2OCC)CC1`, the “% Inhibition @ 10 uM” value was -1.43%. For `Cc1cc(C)c2nc(N3CCC(C(=O)N4CCN(Cc5ccccc5)CC4)CC3)sc2c1`, the “% Inhibition @ 10 uM” value was determined as 6.27%. With `O=C(NCCCN1CCOCC1)c1ccc(Br)cc1` the figure was -4.68%. With `CCOC(=O)C1=C(CSCc2ccccc2)NC(=O)NC1c1cc(C)ccc1C` (stereo not shown) the figure was 6.47%; with `CC(=O)Nc1ccc(NC(=O)/C=C\C(=O)O)cc1`, -3.65%; with `O=C(Nc1ccc(O)cc1)c1ccc([N+](=O)[O-])o1`, 4.17%. For `c1nc(N2CCOCC2)c2nc[nH]c2n1`, the “% Inhibition @ 10 uM” value was -6.68%.

In the case of `O=C(O)c1ccccc1C(=O)Nc1nccs1`, the “% Inhibition @ 10 uM” value was 5.98%. `COc1cc(OC)cc(C(=O)Nc2cnn(Cc3ccc(Cl)cc3)c2)c1`: the “% Inhibition @ 10 uM” value is 17.5%.

Consider `Cc1ccccc1OCCCCCn1ccnc1`, for which the “% Inhibition @ 10 uM” value is -0.693%.

For `CCOc1cc(/C=C2/NC(=O)N(Cc3ccc(F)cc3)C2=O)ccc1O`, the “% Inhibition @ 10 uM” value is listed as 4.28%. With `COC(=O)c1ccn(-c2nc(-c3cccs3)cc(C(F)(F)F)n2)n1` the figure was -7.85%. As for `CCOC(=O)c1cc(CC)sc1/N=C/C1C(=O)CCCC1=O`, the “% Inhibition @ 10 uM” value is 3.72%. With `CCc1cc2c(NC(Cc3c[nH]c4ccccc34)C(=O)O)nc(C)nc2s1` (stereo not shown) the figure was 4.87%; with `Cc1cc2n(c(=O)c1C#N)CCCN2c1cccc(Cl)c1`, 2.32%. In the case of `COc1ccc(S(=O)(=O)N2CCCCC2)cc1OC`, the “% Inhibition @ 10 uM” value is reported as -0.582%.

For `COc1ccc(C(=O)/C=C/c2cc(OC)c(OC)cc2OC)c(OC)c1`, the “% Inhibition @ 10 uM” value is listed as -5.94%.

As for `Cc1ccc(C2CCN(C(=O)c3ccc(CS(=O)(=O)c4ccccc4C)o3)C2)cc1` (stereo not shown), the “% Inhibition @ 10 uM” value is listed as -2.72%. `CCOc1ccc(N2C(=O)CC(NC3CCCC(C)C3C)C2=O)cc1` (stereo not shown): the “% Inhibition @ 10 uM” value is -0.48%. With `CCn1ccc(C(=O)Nc2ccc(S(=O)(=O)Nc3ccc(OC)cc3)cc2)n1` the figure was 2.09%; with `Cc1ccc(C)c(Cn2cnc3c(cnn3C)c2=O)c1`, 1.68%; with `CC(CCc1ccco1)NC(=O)C1CCN(c2ncccn2)CC1` (stereo not shown), -6.43%. With `CC(=O)NC1(C(=O)NC2CCCC2)CCCCC1` the figure was -2.53%; with `Cn1c(SCC(=O)Nc2ncc(C34CC5CC(CC(C5)C3)C4)s2)nnc1-c1ccccc1`, -1.24%.
